Test results: article PMC4336329 (PLoS ONE, 2015)
About 14,000 (4.5%) of roughly 310,000 compounds showed an effect of 50% or more. Effects have a minus sign here. The list shows a part of the results.

molecular target: human ether-à-go-go-related gene (hERG) potassium channel (human, UniProt Q12809); assay: primary screen, population patch clamp on CHO cells stably expressing hERG
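Note: peak tail current of the secondary pulse compared with the same well before compound.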

human ether-à-go-go-related gene (hERG) potassium channel, sequence (Q12809 whole entry, looked up): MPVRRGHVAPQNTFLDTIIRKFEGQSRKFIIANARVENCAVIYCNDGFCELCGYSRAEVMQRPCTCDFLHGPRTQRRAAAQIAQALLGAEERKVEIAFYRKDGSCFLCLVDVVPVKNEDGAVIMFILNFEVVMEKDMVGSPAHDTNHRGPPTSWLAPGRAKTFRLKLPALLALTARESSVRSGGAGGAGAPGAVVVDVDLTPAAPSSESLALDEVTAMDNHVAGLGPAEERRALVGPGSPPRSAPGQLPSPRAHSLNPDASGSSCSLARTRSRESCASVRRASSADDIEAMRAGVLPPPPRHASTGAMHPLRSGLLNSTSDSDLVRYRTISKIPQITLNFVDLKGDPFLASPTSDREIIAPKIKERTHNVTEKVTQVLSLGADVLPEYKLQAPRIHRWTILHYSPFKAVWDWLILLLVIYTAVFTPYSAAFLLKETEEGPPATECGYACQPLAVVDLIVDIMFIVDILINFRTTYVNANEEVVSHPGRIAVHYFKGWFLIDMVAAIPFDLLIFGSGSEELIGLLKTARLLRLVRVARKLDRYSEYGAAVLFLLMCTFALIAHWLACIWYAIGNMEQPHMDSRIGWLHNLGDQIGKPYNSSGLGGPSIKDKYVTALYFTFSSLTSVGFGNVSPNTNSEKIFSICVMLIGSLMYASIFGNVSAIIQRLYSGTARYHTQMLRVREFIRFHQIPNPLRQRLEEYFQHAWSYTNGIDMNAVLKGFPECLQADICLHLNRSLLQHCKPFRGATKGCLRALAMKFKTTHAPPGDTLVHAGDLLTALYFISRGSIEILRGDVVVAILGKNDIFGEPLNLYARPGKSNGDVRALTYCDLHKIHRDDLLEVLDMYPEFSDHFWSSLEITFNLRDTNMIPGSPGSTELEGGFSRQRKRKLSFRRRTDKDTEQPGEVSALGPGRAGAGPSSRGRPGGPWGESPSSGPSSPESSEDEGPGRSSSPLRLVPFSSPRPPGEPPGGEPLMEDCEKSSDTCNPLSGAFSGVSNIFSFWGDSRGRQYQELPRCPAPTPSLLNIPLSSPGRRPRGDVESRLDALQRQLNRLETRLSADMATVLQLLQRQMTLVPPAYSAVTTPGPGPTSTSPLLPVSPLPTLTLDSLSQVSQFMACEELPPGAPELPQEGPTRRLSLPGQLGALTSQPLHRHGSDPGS

SMILES	hERG current change (%, negative = inhibition) at 10uM [%]
CC(C)n1c(=O)n(CC(=O)NCC2CCCO2)c(=O)c2c3c(sc21)COC(C)(C)C3 (stereo not drawn)	4.21
CCOC(=O)C1CCCN(C(=O)CCc2nnc(-c3ccc(C(C)=O)s3)o2)C1 (stereo not drawn)	13
COCCNC(=S)N/N=C(\C)c1ccc(OC(F)F)cc1	-4.58
Cc1ccc(NC(=O)Cn2cnc3cc([N+](=O)[O-])ccc3c2=O)cc1	0.77
COc1ccc(OCC(=O)NNC(=O)C2CCN(c3ncnc4sc(C)c(C)c34)CC2)cc1	-52.5
CON(c1nc(N(C)C)nc(N(C)C)n1)S(=O)(=O)c1ccccc1Cl	-8.85
CCOC(=O)C1CCN(C(=O)CNS(=O)(=O)c2cccs2)CC1	-0.439
CC1CCCCC1NC(=O)C1CCCN1S(=O)(=O)c1cccc2nsnc12 (stereo not drawn)	2.7
COc1cc(OC)c(NC(=O)/C=C/C(=O)O)cc1Cl	17.3
COc1ccc(NC(=O)CN(c2ccc(OC)c(Cl)c2)S(=O)(=O)c2ccccc2)c(OC)c1	8.77
[N-]=C=C1C(=O)NC(=O)C([n+]2ccc(-c3ccncc3)cc2)C1c1ccccc1C(F)(F)F (stereo not drawn)	0.282
COc1ccc(OC)c(CNC(=O)C2CCC(=O)N(CCCN3CCCC3=O)C2)c1 (stereo not drawn)	-4.22
O=C(N/N=C/c1coc2ccc(Cl)cc2c1=O)c1cc(O)cc(O)c1	-3.69
C=CCSc1nnc(-c2nnc(SCC=C)n2CC)n1CC	0.323
CCCCNC(=O)c1ccc2c(c1)N(CC)C(=O)CS2	-2.74
COc1ccc(/C=N/NC(=O)CCN2CCCCC2c2cccnc2)cc1Cn1cc([N+](=O)[O-])cn1 (stereo not drawn)	-30.7
COc1ccc(C(=O)NC(=S)N2CCCc3ccccc32)cc1OC	-14.9
Brc1cnc2ccccc2c1N1CCCCC1	9.82
Cc1cc(C)nc(N2CCCC(C(=O)NC(C)CCc3ccco3)C2)n1 (stereo not drawn)	-4.14
CCOc1ccccc1NC(=O)CSc1nnc(-c2cnccn2)n1CC	-44.2
CCN1C(=O)[C@H]2[C@@H](c3ccc(C)cc3)N3C(=O)N(c4cccc(F)c4)C(=O)[C@@]3(Cc3ccc(Cl)cc3)[C@H]2C1=O	6.42

SMILES	hERG current change (%, negative = inhibition) at 10uM [%]
OCC1(CCOc2ccccc2)CCN(CC2=Cc3cc(Cl)ccc3OC2)CC1	-21.9
Cc1cc(C)n(-c2cc(N3CCN(C(=O)c4ccccc4C)CC3)ccc2[N+](=O)[O-])n1	-52.7
O=C(NCC1CCCO1)C(C(=O)c1ccc(F)cc1)n1ccccc1=O (stereo not drawn)	16.3
CN(C)c1cccc(C(=O)N/N=C/c2ccsc2)c1	2.64
Cc1cc(=O)oc2c3c(cc(OCC(=O)NC(C)C)c12)OC(C)(C)CC3	-2.62
O=C(NCc1ccc(Cl)cc1Cl)Nc1ccccc1	2.75
Cc1cnn(C(=S)NCCc2ccccc2)c1	-2.59
C/C(=N\NC(=O)COc1ccccc1F)c1cc2ccccc2o1	3.99
Cc1csc2nc(CSc3ccc(Cl)cc3)cn12	-27.3
COc1ccc(C(=O)N/N=C/C(C)c2ccccc2)cc1OC (stereo not drawn)	-5.03
O=C(CN(CCc1ccccc1)C(=O)Cn1nnc(-c2cccs2)n1)NCc1ccco1	-38.7
CCOC(=O)N1CCC(N2C(=O)c3ccccc3C2Nc2cc(Cl)c(OC)cc2OC)CC1 (stereo not drawn)	-45.5
O=C(c1cc2ccccc2o1)N(Cc1nnc(-c2ccccc2Cl)o1)C1CC1	-21.2
CC(=O)Nc1ccc(S(=O)(=O)N2CCC(NC(C)=O)(c3cccc(F)c3)CC2)cc1	-12.4
CCCCn1c(N)c(N(CCOC)C(=O)C2CC(=O)N(Cc3ccco3)C2)c(=O)[nH]c1=O (stereo not drawn)	14
COc1cc(C)c(Br)cc1S(=O)(=O)N1CCCC1	-22.1
Cc1cc(C(=O)OCC(=O)c2cccc([N+](=O)[O-])c2)c2cccc(C)c2n1	-2.1
O=C(NC1CCCc2ccccc21)C1CCN(S(=O)(=O)N2CCCCCC2)CC1 (stereo not drawn)	-12.8
COc1ccc2c(c1OC)C(=O)O[C@@H]2[C@H]1c2c(cc3c(c2OC)OCO3)CCN1C	-2.49
CCN1CCN(CCCNC(=O)C2c3ccccc3C(=O)N(c3ccc(OC)cc3)C2c2ccc(OC)cc2)CC1 (stereo not drawn)	1.22
CSc1ccccc1C(=O)Nc1ccc(C)cc1C	-7.51

SMILES	hERG current change (%, negative = inhibition) at 10uM [%]
Cc1cccc(OCC(=O)NC(=S)N2CCCc3ccccc32)c1	8.58
COc1ccc(/C=C/C(=O)NC(=S)NNC(=O)c2c(-c3ccccc3)noc2C)cc1	11.4
Cc1cc[n+]2cc(-c3cccc([N+](=O)[O-])c3)c(-c3cccc([N+](=O)[O-])c3)cc2c1.[Br-]	-39.9
Cc1ccc(/C=[N+](\[O-])c2ccccc2C)o1	14.7
COc1ccc(OC)c(C2CC(c3ccccc3)=NN2C(=S)Nc2ccccc2)c1 (stereo not drawn)	-5.72
Oc1cccc(NC(=S)Nc2ccc(SC(F)F)cc2)c1	-6.06
O=c1ccc2cc3c([nH]c4ccc(Br)cc43)oc-2c1O	0.273
CC(=O)Nc1ccc(NC(=O)c2cc(-n3cnnc3)ccc2Cl)cc1	15.7
COc1ccc(S(=O)(=O)Nc2cc(C)ccn2)cc1	2.78
COc1ccc(-c2cnnc(N/N=C/C(C)=C/c3ccccc3)n2)cc1	-9.57
CCCN1CNc2c(c(=O)[nH]c(=S)n2CCc2ccccc2)C1	25.7
CC(C)c1onc(C(=O)NCc2ccc(F)cc2)c1[N+](=O)[O-]	-1.24
O=C(COCC(=O)N1CCOCC1)N1CCOCC1	14.2
COCCNc1ncnc2c1[nH]c1ccccc12	8.68
S=C(Nc1ccccc1Cl)NC1CCN(Cc2ccccc2)CC1	-17.9
CCOc1ccc(OCC)c(NC(=O)C2CCCN(C(=O)c3ccc(Cl)cc3)C2)c1 (stereo not drawn)	-34
CCn1cc(C(=O)N(C)c2ccc(OC)cc2OC)c2cc(OC)c(OC)cc2c1=O	12.4
CC(=O)Nc1ccc(S(=O)(=O)NCCc2csc(-c3cccnc3)n2)cc1	13.9
CCOC(=O)CNC(=S)N1CC2C[C@@H](C1)Cn1c2cccc1=O	18.2
CC12CCC(=O)N1C(C(=O)NNC(=O)COc1ccc(Br)cc1)CS2 (stereo not drawn)	-2.04
CCOC(=O)[C@@H]1[C@H]2COc3ccccc3[C@@H]2N2C(=O)N(c3ccc(OC)cc3)C(=O)[C@@]12C	-0.644

SMILES	hERG current change (%, negative = inhibition) at 10uM [%]
CCc1ccc2c(CN3CC=C(c4ccccc4)CC3)cc(=O)oc2c1	-26.3
O=C(c1ccc2c(=O)n(Cc3ccc(Cl)cc3)c(=S)[nH]c2c1)N1CCOCC1	15.6
Cc1cc(C(=O)NCC(=O)OCC(=O)NCCc2ccccc2)ccc1[N+](=O)[O-]	-16.9
CCCOC(=O)c1ccc(NC(=O)Cc2cccs2)cc1	-2.06
O=C(NCc1cccnc1)c1cn(-c2ccccc2)nc1-c1ccccc1	-24.3
C=CCOc1c2ccc(C(=O)NCc3ccc(OC)cc3)cc2nn1C	22.5
CC(C)CN(C(=O)COC(=O)c1ccc([N+](=O)[O-])s1)c1c(N)n(Cc2ccccc2)c(=O)[nH]c1=O	2.48
CN(C)c1cccc(C(=O)OCC(=O)Nc2ccccc2Sc2ccccc2)c1	23.9
Cc1ccc(S(=O)(=O)NCCN2CCOCC2)c(C)c1C	13.3
CC12CC[C@H]3[C@@H](CCC4(O)C[C@H](O)CCC34/C=N/NC(=O)c3ccccc3F)C1(O)CCC2C1=CC(=O)OC1 (stereo partly drawn)	16.5
CCC(C)C(=O)Nc1cc([N+](=O)[O-])ccc1Cl (stereo not drawn)	8.52
Cc1c(NC(=S)NC(=O)C(C)(C)C)c(=O)n(-c2ccccc2)n1C	-6.81
Cc1ccc(C(=O)OCC(=O)NCc2ccco2)s1	10.9
Cc1ccc(N(C(=O)c2csnn2)C(C(=O)NC2CCCCC2)c2cccnc2)cc1C (stereo not drawn)	-7.34
Cc1ccc(/C=C/C(=O)Nc2cc(S(N)(=O)=O)ccc2O)cc1	-48.4
COc1ccc(CC(C#N)(CO)c2nc3ccccc3[nH]2)cc1 (stereo not drawn)	-7.12
COc1ccc(Cn2c(C)nc3c(c(=O)c4ccccc4n3C)c2=O)cc1	-44.5
c1ccc2c(c1)CCNC2c1ccncc1 (stereo not drawn)	16
O=C(COC(=O)Cc1n[nH]c(=O)c2ccccc12)Nc1ccc(Cl)cn1	-29.3
N#C/C(=C\c1cn(Cc2ccccc2F)c2ccccc12)C(=O)NCc1ccco1	14.3
Cc1cc(/C=C2\C(=O)NC(=O)N(c3ccc(Cl)cc3)C2=O)c(C)n1-c1cccc(C(=O)O)c1	13.6
